Test results reported in PubChem BioAssay (NCI).
“And” between values parts separate entries of the source, which are not always exact repeats. Equal values may be shown once.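 How tested: cells in 96-well plates exposed to compound for 48 hours at five concentrations. GI50 is the concentration that inhibits growth by half. TGI: concentration producing complete growth inhibition.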 Numbered stars: 1 amine (or outer) side, 2 acyl side, 3 side chain; on linkers, the order of the positions; unused ones are H or OH. Bridge positions count the residues as written; N and C are the ends. Square brackets hold non-standard residues; d marks the D form. Peptide text beside a SMILES is read from it. I, II: the chains in the order shown. Actinocin(9to1) = Cc1c2oc3c(C)ccc(C(=O)[*:1])c3nc-2c(C(=O)[*:2])c(N)c1=O; NMeH = CN[CH](Cc1c[nH]cn1)C(=O)O; NMeV = CN[CH](C(=O)O)C(C)C; Sar = CNCC(=O)O

Test system: NCI-H322M lung
Assay: DTP human tumour cell line panel, 48 h

SMILES	TGI	GI50
N#C/C(=C/C=C/c1ccco1)C(N)=O	> 10 µM	–
C=C1CC(CC)(CCN2C(=O)c3ccccc3C2=O)OC1=O (configuration not stated)	> 100 µM	–
O=[N+]([O-])c1ccc(NN=C2CN3CCN(C2)c2ccccc23)c([N+](=O)[O-])c1	> 100 µM	–
O=c1cc(-c2ccccn2)[nH]c2cccc(F)c12	> 100 µM	–
C[N+]1=c2c3cccc4cccc(c(=O)n2CC1)c43	33.4 µM	–
O=C1c2cc(Cc3ccccc3)c(=O)c(Cc3ccccc3)cc2C(=O)c2cc(Cc3ccccc3)c(=O)c(Cc3ccccc3)cc21	> 100 µM	–
O=[N+]([O-])c1cccc(/C=N/NC2=CS(=O)(=O)C=C2)c1	> 100 µM	–
Cc1cc(S(=O)(=O)Nc2nc3ncccc3[nH]2)c(S)cc1Cl	> 100 µM	–
Cn1cnc(N)c(N=O)c1=O	> 10 µM	–
CN1/C(=C/C=C/C=C/C=C2C(=O)c3ccccc3C2=O)C(C)(C)c2ccccc21	> 100 µM	–
C[C@]12CC[C@H]3[C@@H](CCC4=CC(=O)C=C[C@@]43OC(=O)C(F)(F)F)[C@@H]1CCC2=O	> 100 µM	–
CCOC(=O)C1CC(C(=O)c2ccccc2)N2c3ccccc3-c3ccccc3C12 (configuration not stated)	> 100 µM	–
O=C1NC(N/N=C\C(O)C(O)C(O)C(O)CO)=N/C1=C/c1ccccc1 (configuration not stated)	> 100 µM	> 100 µM and 28.4 µM
CC(C)/C=C1\CCC(CN2CCOCC2)C1=O (configuration not stated)	> 53.4 µM	–
NCCCN(CCCCN(CCCN)C(=O)OCc1ccccc1)C(=O)OCc1ccccc1	> 100 µM	–
C=CCn1c(=S)sc2c(C(=O)OCC)c3c(C)cc(C)cn3c2c1=O	> 100 µM	–
COc1ccc(C2C3=C(N=C4SC(C(C)=O)=C(C)N42)c2ccccc2CC3)cc1 (configuration not stated)	> 100 µM	–
OCCCCC#Cc1ccccc1C#Cc1ccc(O)cc1	28.3 µM	13.7 µM
Cn1cccc1-c1ccc(-c2ccc(CO)[se]2)[se]1	> 100 µM	–
[2H]C([2H])([2H])NC(=O)c1nnc(NC(=O)C2CC2)cc1Nc1cccc(-c2ncn(C)n2)c1OC	> 100 µM	8.11 µM
COC(=O)c1ccccc1C1CN=NC12Cc1c(ccc3c1CCC3)C2=O (configuration not stated)	> 100 µM	–
C#CC(O)(c1nc2ccccc2s1)c1nc2ccccc2s1	98.4 µM	–

SMILES	TGI	GI50
O=C(/C(=C(/O)c1ccccc1)c1nc2ccccc2sc1=O)c1ccccc1	> 100 µM	–
N#Cc1nc2cc(Cl)ccc2nc1N1CCN(c2ccc([N+](=O)[O-])cc2)CC1	> 100 µM	–
CSC(SC)=C(C#N)C(=O)Nc1cccc(Cl)c1	> 100 µM	–
O=P1(N2CCOCC2)OCCO1	> 100 µM	–
CC[C@@]1(O)C(=O)OCc2c1cc1n(c2=O)Cc2c-1nc1ccc(O)cc1c2[Si](C)(C)C(C)(C)C	18.9 µM	–
O=C(O)C(Cc1cnc[nH]1)N1C(=O)c2ccccc2C1=O (configuration not stated)	> 100 µM	–
COc1ccc2c(c1)/C(=C\c1ccncc1)C(=O)N2	31.6 µM	7.87 µM
Cc1cccc2c(N)c3cccc(C(=O)NCC[N+](C)(C)Cc4ccc([N+](=O)[O-])s4)c3nc12	48.5 µM	–
CC(C)(C)OC(=O)N/C(C=O)=C\C1CCCCC1	67 µM	–
C=CC(=O)N1C/C(=C\c2ccc(Cl)c(Cl)c2)C(=O)/C(=C/c2ccc(Cl)c(Cl)c2)C1	0.829 µM	–
COc1cc2ccc(C(=O)NCCCNC(=O)c3ccc4cc(OC)c(OC)cc4c3)cc2cc1OC	> 100 µM	–
Fc1ccc(-c2ncn(C3CCNCC3)c2-c2ccnc(Oc3ccc4c(c3)OCO4)n2)cc1	> 25 µM	> 25 µM
NC(Cc1ccc(OCc2ccccc2)cc1)C(=O)NC(Cc1ccccc1)C(=O)Oc1c(Cl)c(Cl)c(Cl)c(Cl)c1Cl (configuration not stated)	34 µM	–
CCOc1ccc2c(-c3ccnc(Nc4cc(OC)cc(C(F)(F)F)c4)n3)cnn2n1	> 25 µM	> 25 µM
CCc1cccc2c3c([nH]c12)-c1ccccc1NC(=O)C3	> 100 µM	–
C=C1C(=O)O[C@H]2[C@H]1CC/C(COC(=O)CCCCCC(=O)OC/C1=C/CC[C@@]3(C)O[C@H]3[C@H]3OC(=O)C(=C)[C@@H]3CC1)=C\CC[C@@]1(C)O[C@@H]21	20 µM	6.99 µM
CN1CCN(Cc2c[nH]c3c2C(=O)c2c(c(O)c4ccccc4c2O)C3=O)CC1	24 µM	8.62 µM
[N-]=[N+]=NC(c1cn(C2CC(O)C(CO)O2)c(=O)[nH]c1=O)C(Cl)Br (configuration not stated)	> 100 µM	–
CCC[CH2][Sn]([CH2]CCC)([O]C(=O)c1cc(OC)c(OC)cc1OC)[O][Sn]([CH2]CCC)([CH2]CCC)[O]C(=O)c1cc(OC)c(OC)cc1OC	2.61 µM	1.32 µM
COc1cc(/C=C2\CC/C(=C\c3cc(OC)c(O)c(OC)c3)C2=O)cc(OC)c1O	> 100 µM	–
O=C(CCN1CCOCC1)/C(=C/c1ccccc1)c1ccccc1	28.8 µM	–
COc1cc(/C=C/c2ccc(C)cc2)cc(OC)c1OC	29.2 µM	–

SMILES	TGI	GI50
CSC(=S)Nc1cc(C)cc(C)n1	> 31.6 µM	–
Cc1cc2c(c(C(N)=O)c1C)-c1cccc(F)c1C2=O	> 100 µM	–
FC(F)(F)c1cc(N(C2c3ccccc3C=Cc3ccccc32)P(Cl)Cl)cc(C(F)(F)F)c1	74 µM	–
C=C(C(=O)O[C@H]1C/C(C)=C/CC/C(CO)=C/[C@H]2C(=O)OC(=C)[C@H]12)C(O)CO (some centres not stated)	34.4 µM	–
C/C(CC(=O)NCCc1ccccc1)=N\NS(=O)(=O)c1ccc(C)cc1	> 100 µM	–
CO/N=C(\COc1ccc2c(=O)c3ccccc3oc2c1)c1ccccc1	47.6 µM	16.8 µM
Cc1nc2cc(F)c(F)cc2[nH]c1=O	> 100 µM	–
C[C@H]1[C@H](C)N1CC(O)Cn1ccnc1[N+](=O)[O-] (some centres not stated)	> 100 µM	–
COC(=O)C1=C(OC(=O)/C(=C/c2ccccc2)c2ccc(OC)cc2)C(C(=O)OC)[C@@]2(O)[C@@H](C(=O)OC)[C@H](C)C[C@@H]1[C@@H]2C(=O)OC (some centres not stated)	> 100 µM	–
COc1c(C(C)=O)c(OCCCCOc2c(C(C)=O)c(OC)c3ccoc3c2OC)c(OC)c2occc12	> 100 µM	> 100 µM
C1=NCCNCCNCCN=Cc2ccc(cc2)OCc2cccc(n2)COc2ccc1cc2	> 100 µM	–
COc1ccc(/C=C(/c2ccccc2)[N+](=O)[O-])c(OC)c1	2.77 µM	1.43 µM
C/C=C(\C)C(=O)OC1CC(OC(C)=O)C2(C(=O)OC)COC3C2C1(C)C1C2(C(=O)OC)OCC1(C3O)C1(O)C3CC(C4(O)C=COC4O3)C1(C)O2 (configuration not stated)	> 100 µM	–
COc1ccccc1/C=C1\COc2ccc(-c3ccccc3)cc2C1=O	8.53 µM	2.07 µM
CC1CC[C@@]2(OC1)O[C@H]1[C@H](O)[C@H]3[C@@H]4CC[C@H]5C[C@@H](OC6OC(CO)C(OC7OC(CO)C(O)C(OC8OCC(O)C(O)C8O)C7OC7OC(CO)C(O)C(O)C7OC7OC(CO)C(O)C(O)C7O)C(O)C6O)[C@H](O)C[C@]5(C)[C@H]4CC[C@]3(C)[C@H]1[C@@H]2C (some centres not stated)	> 10 µM	–
COC1C(OC(=O)c2ccc(C)[nH]2)C(O)C(Oc2ccc3c(O)c(NC(=O)c4c[nH]c(C(=O)Nc5c(O)c6ccc(OC7OC(C)(C)C(OC)C(OC(=O)c8ccc(C)[nH]8)C7O)c(C)c6oc5=O)c4C)c(=O)oc3c2C)OC1(C)C (configuration not stated)	10.6 µM	–
Cc1c2oc3c(C)ccc(C(=O)NC4C(=O)NC(Cc5ccccc5)C(=O)N5CCCC5C(=O)N(C)CC(=O)N(C)C(C(C)C)C(=O)OC4C)c3nc-2c(C(=O)NC2C(=O)NC(Cc3ccccc3)C(=O)N3CCCC3C(=O)N(C)CC(=O)N(C)C(C(C)C)C(=O)OC2C)c(N)c1=O (configuration not stated) (I: TFP[Sar][NMeV] / II: TFP[Sar][NMeV]; ester I:1-I:C, II:1-II:C; linker I:N-II:N via Actinocin(9to1); configuration not given here)	0.071 µM	–
COc1ccccc1N=Nc1c(-c2ccccc2)nn(C(=O)CC(=O)Nc2cccc(C)c2)c1-c1ccccc1	> 100 µM	–
Cc1cc(-n2nnc(C(=O)O)c2-c2ccccc2)c2ccc(Cl)cc2n1	> 100 µM	–
Cc1cc2[nH]c3c(C#N)c(-c4ccccc4)c(N=Nc4ccc(F)cc4)c(=O)n3c2cc1C	> 100 µM	–
Nc1ccn(C2CC(F)C(CO)O2)c(=O)n1 (configuration not stated)	> 100 µM	> 100 µM
O=C(NNC(=S)Nc1ccccc1)c1nsc2ccccc12	> 100 µM	–

SMILES	TGI	GI50
Cc1cn(C2CCC(CO)(CF)O2)c(=O)[nH]c1=O (configuration not stated)	> 100 µM	–
O=C(NCCN1CCOCC1)OCc1nc2nc(Cl)nc(N3CCOCC3)c2[nH]1	> 100 µM	4.45 µM
Cc1cc(C)c2c(c1)CC1(Cc3cc(C)c(C)cc3C1=O)C2=O (configuration not stated)	> 100 µM	–
CCCC[C@@H](C)/C=C1\CN2CCC[C@H]2[C@@](C)(OCc2ccccc2)[C@@H]1O	> 20 µM	–
Cc1c(C(=O)C/C(=N/NC(=O)c2ccccc2)C(=O)Nc2ccc(Cl)cc2)[n+](=O)c2ccccc2n1[O-]	> 100 µM	–
Cc1c2oc3c(C)ccc(C(=O)NC4C(=O)NC(C(C)C)C(=O)N5CCCC5C(=O)N(C)CC(=O)N(C)C(Cc5cnc[nH]5)C(=O)OC4C)c3nc-2c(C(=O)NC2C(=O)NC(C(C)C)C(=O)N3CCCC3C(=O)N(C)CC(=O)N(C)C(Cc3cnc[nH]3)C(=O)OC2C)c(N)c1=O (configuration not stated) (I: TVP[Sar][NMeH] / II: TVP[Sar][NMeH]; ester I:1-I:C, II:1-II:C; linker I:N-II:N via Actinocin(9to1); configuration not given here)	> 100 µM	–
CCOC(=O)/C(C(N)=O)=C(\O)C(=O)/C(Br)=C(\O)c1ccccc1	> 76.6 µM	–
CCCCNNC(=O)c1ccc(Br)cc1	> 50 µM	10.4 µM
O=C(Oc1cccc(Cl)c1)c1ccccc1Nc1ccnc(C(F)(F)F)c1	66.1 µM	23.3 µM
C/C(=C\c1ccn(-c2ccccc2N)n1)[C@@H]1C[C@@H]2O[C@]2(C)CCC[C@H](C)[C@H](O)[C@@H](C)C(=O)C(C)(C)[C@@H](O)CC(=O)O1	> 50 µM	0.0442 µM
O=c1c2cc(C(F)(F)F)ccc2sc2c(NCCCNCCO)nc3ccccc3c12	2.89 µM	1.53 µM
C[C@@H]1[C@@H](C)C(c2ccccc2)O[Si]1(C(C)(C)C)C(C)(C)C (some centres not stated)	30.8 µM	–
Cc1ccc(/C=C(\C#N)c2cc3ccccc3n2C)cc1	> 100 µM	0.694 µM
COc1ccccc1OCC(COC(=O)Nc1ccccc1)OC(=O)Nc1ccccc1 (configuration not stated)	> 100 µM	–
COc1ccc2c(c1)nc(NNC(=O)c1cnccn1)c1cccn12	5.02 µM	0.119 µM
C#C[C@]1(O)CC[C@H]2[C@@H]3CCC4=C/C(=N/NC(=O)c5cccc6c(=O)c7ccccc7[nH]c56)CCC4[C@H]3CC[C@@]21C (some centres not stated)	> 100 µM	–
N#Cc1c(-c2ccc(Cl)cc2)cc(-c2ccc(Nc3ccnc4cc(Cl)ccc34)cc2)[nH]c1=O	> 100 µM	–
O=C(Nc1sccc1S(=O)(=O)c1ccc(Cl)cc1)c1ccc(F)cc1F	> 100 µM	–
Cc1ccc(S(=O)(=O)Oc2ccc3c4c(c(=O)oc3c2)CCCCCC4)cc1	> 100 µM	> 100 µM
